Reference: PMC11995724, “Antibiotic target discovery by integrated phenotypic and activity-based profiling of electrophilic fragments” (Cell chemical biology, 2025)
In all, about 3,200 compounds went through this assay and about 110 (3.4%) showed an effect of 50% or more. The list shows a part of the results.

Each molecule was assayed on T1, V. cholerae SAD30. Details: relative growth, OD600, LB; 25 µM; inhibitor.
T1 construct: SAD30
Design: species or system S. aureus MSSA476 (TSB) or V. cholerae SAD30 (LB); 384-well bacterial growth screen at 25 uM, OD600 relative to DMSO control

In order of rising “% of control remaining” value:
1. Cc1ccc(N2C(=O)C=CC2=O)c(C)c1 [10-N07, 1-(2,4-dimethylphenyl)-2,5-dihydro-1H-pyrrole-2,5-dione]  22.5989%
2. NC(=O)Nc1ccc(C(=O)CCl)cc1 [10-J07, [4-(2-chloroacetyl)phenyl]urea]  65.4588%
3. CC(NC(=O)C(C#N)=Cc1cccc(F)c1)c1ccccc1 (centres unmarked) [8-L18, 2-cyano-3-(3-fluorophenyl)-N-(1-phenylethyl)prop-2-enamide]  65.8736%
4. CC(Cl)C(=O)N1CCCC(NS(=O)(=O)c2cccc(F)c2)C1 (centres unmarked) [7-C13, N-[1-(2-chloropropanoyl)piperidin-3-yl]-3-fluorobenzene-1-sulfonamide]  76.9205%
5. CC(Cl)C(=O)NCc1cc(C(F)F)nn1C (centres unmarked) [6-H14, 2-chloro-N-{[3-(difluoromethyl)-1-methyl-1H-pyrazol-5-yl]methyl}propanamide]  84.7853%
6. C=CC(=O)NCc1cc2cc(C)ccc2o1 [3-L14, N-[(5-methyl-1-benzofuran-2-yl)methyl]prop-2-enamide]  86.6201%
7. COc1ccccc1N=Nc1ccc(NC(=O)CCl)cc1C [6-J06, 2-chloro-N-{4-[2-(2-methoxyphenyl)diazen-1-yl]-3-methylphenyl}acetamide]  88.1221%
8. CC(c1ccc(C(F)(F)F)cc1F)N(C)C(=O)CCl (centres unmarked) [7-P18, 2-chloro-N-{1-[2-fluoro-4-(trifluoromethyl)phenyl]ethyl}-N-methylacetamide]  89.212%
9. N#CC(=Cc1cccc(O)c1)C(=O)NCc1ccco1 [9-F21, 2-cyano-N-[(furan-2-yl)methyl]-3-(3-hydroxyphenyl)prop-2-enamide]  89.395%
10. C=CC(=O)NC1(c2nccc(C(F)(F)F)n2)CC1 [2-D07, N-{1-[4-(trifluoromethyl)pyrimidin-2-yl]cyclopropyl}prop-2-enamide]  90.0415%
11. C=CC(=O)Nc1cccc(OC(C)(C)C)c1 [3-G14, N-[3-(tert-butoxy)phenyl]prop-2-enamide]  90.3253%
12. C=CC(=O)N1CCOCC2(COCCN2C)C1 (centres unmarked) [3-J14, 1-{1-methyl-4,8-dioxa-1,11-diazaspiro[5.6]dodecan-11-yl}prop-2-en-1-one]  90.5017%
13. O=C(CCl)NCc1nn(-c2ccccc2)c2c1CCC2 [7-B06, 2-chloro-N-({1-phenyl-1H,4H,5H,6H-cyclopenta[c]pyrazol-3-yl}methyl)acetamide]  90.6658%
14. CC(Cl)C(=O)NCc1nnc2n1-c1ccccc1CC2 (centres unmarked) [6-N14, 2-chloro-N-({4H,5H-[1,2,4]triazolo[4,3-a]quinolin-1-yl}methyl)propanamide]  91.6106%
15. C=CC(=O)Nc1cc(NC(=O)C2CCC2)ccc1F [2-E10, N-[4-fluoro-3-(prop-2-enamido)phenyl]cyclobutanecarboxamide]  92.0486%
16. C=CC(=O)N1CCC(C(=O)NC2(CO)CCSCC2)CC1 [3-H07, N-[4-(hydroxymethyl)thian-4-yl]-1-(prop-2-enoyl)piperidine-4-carboxamide]  92.2661%
17. C=CC(=O)N(C)Cc1cncn1C [2-D09, N-methyl-N-[(1-methyl-1H-imidazol-5-yl)methyl]prop-2-enamide]  93.747%
18. Cc1ccc(C(=O)c2c(NC(=O)CCl)sc3c2CCCC3)cc1 [6-A12, 2-chloro-N-[3-(4-methylbenzoyl)-4,5,6,7-tetrahydro-1-benzothiophen-2-yl]acetamide]  94.644%
19. C=CC(=O)Nc1ccc(N(C)S(=O)(=O)CC)cc1 [3-H06, N-[4-(N-methylethanesulfonamido)phenyl]prop-2-enamide]  94.7363%
20. C=CC(=O)N1CCC(C(=O)NOC2CCCC2)(c2ccccc2)CC1 [3-K06, N-(cyclopentyloxy)-4-phenyl-1-(prop-2-enoyl)piperidine-4-carboxamide]  95.7949%
21. C=CC(=O)Nc1ncc(C2CCCC(C)C2)s1 (centres unmarked) [1-J16, N-[5-(3-methylcyclohexyl)-1,3-thiazol-2-yl]prop-2-enamide]  98.3808%
22. CC(C)Cn1c(N)c(C(=O)CCl)c(=O)n(C)c1=O [10-M12, 6-amino-5-(2-chloroacetyl)-3-methyl-1-(2-methylpropyl)-1,2,3,4-tetrahydropyrimidine-2,4-dione]  98.4999%
23. CN(C1CCCCC1)S(=O)(=O)c1ccccc1NC(=O)CCl [5-N10, 2-chloro-N-{2-[cyclohexyl(methyl)sulfamoyl]phenyl}acetamide]  98.8547%
24. CC(=O)c1c(C)[nH]c(C(=O)C(C)Cl)c1C (centres unmarked) [10-P22, 1-(4-acetyl-3,5-dimethyl-1H-pyrrol-2-yl)-2-chloropropan-1-one]  103.955%
25. CN(CCc1ccccc1O)C(=O)CCl [7-P21, 2-chloro-N-[2-(2-hydroxyphenyl)ethyl]-N-methylacetamide]  106.658%
26. O=C(CCl)N1N=C(c2cccs2)CC1c1ccc(F)cc1 (centres unmarked) [4-O20, 2-chloro-1-[5-(4-fluorophenyl)-3-(thiophen-2-yl)-4,5-dihydro-1H-pyrazol-1-yl]ethan-1-one]  108.346%
27. O=C(CCl)NCc1ccccc1Cn1cccn1 [5-P06, 2-chloro-N-({2-[(1H-pyrazol-1-yl)methyl]phenyl}methyl)acetamide]  110.287%
28. C=CC(=O)NCCc1nnc(C(C)C)s1 [2-L05, N-{2-[5-(propan-2-yl)-1,3,4-thiadiazol-2-yl]ethyl}prop-2-enamide]  115.208%
29. NC(=O)c1ccc(NC(=O)CCl)cc1 [4-P04, 4-(2-chloroacetamido)benzamide]  124.391%
